# Source: the supplement of paper PMC9046079
# Counter-ions that a name gives are not always drawn. ± gives the standard deviation of the averaged measurements. The list shows a part of the results.
# Assays:
# [1] = tested on: murine small intestinal organoids (ENR+CD Paneth differentiation); assay: cellular ATP (CellTiter-Glo 3D) relative to plate median (log10 fold change); higher = more viable cells; settings: 6 d
# [2] = tested on: murine small intestinal organoids (ENR+CD Paneth differentiation); assay: carbachol-stimulated secreted lysozyme activity relative to plate median (log10 fold change); higher = more Paneth cell lysozyme secretion; settings: 6 d, carbachol 10 µM
# [3] = tested on: murine small intestinal organoids (ENR+CD Paneth differentiation); assay: basal (non-stimulated) secreted lysozyme activity relative to plate median (log10 fold change); higher = more Paneth cell lysozyme secretion; settings: 6 d
# 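Wherever basal (non-stimulated) secreted lysozyme activity relative to plate median is given: ISC-enriched organoid precursors grown as 2.5D pseudo-monolayer on Matrigel, compound given on day 0 and day 3, plate values LOESS-normalized before median fold change, three murine donors.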
# 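Wherever cellular ATP (CellTiter-Glo 3D) relative to plate median is given: 2.5D pseudo-monolayer culture of ISC-enriched organoids partly embedded atop Matrigel, compound added on day 0 and again on day 3, per-plate LOESS correction before median fold change.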
SMILES,cellular ATP (log10) ([1]; 0.08 µM),cellular ATP (log10) ([1]; 0.4 µM),cellular ATP (log10) ([1]; 2 µM),cellular ATP (log10) ([1]; 10 µM),carbachol-stimulated secreted lysozyme activity (log10) ([2]; 0.08 µM),carbachol-stimulated secreted lysozyme activity (log10) ([2]; 0.4 µM),carbachol-stimulated secreted lysozyme activity (log10) ([2]; 2 µM),carbachol-stimulated secreted lysozyme activity (log10) ([2]; 10 µM),basal (log10) ([3]; 0.08 µM),basal (log10) ([3]; 0.4 µM),basal (log10) ([3]; 2 µM),basal (log10) ([3]; 10 µM)
COc1cc(N2CCN(C)CC2)ccc1Nc1nccc(-c2cn(C)c3cnccc23)n1,0.292 ± 0.28,0.337 ± 0.49,0.15 ± 0.11,-0.533 ± 0.67,0.0599 ± 0.074,0.124 ± 0.087,0.116 ± 0.0047,-0.221 ± 0.21,0.128 ± 0.097,0.0823 ± 0.12,0.0582 ± 0.059,-0.148 ± 0.11
CCc1nc(N)nc(N)c1-c1ccc(Cl)cc1 [Pyrimethamine],-0.266 ± 0.49,-0.0426 ± 0.33,-0.118 ± 0.5,-0.487 ± 0.19,-0.159 ± 0.33,0.0929 ± 0.2,0.0343 ± 0.19,-0.113 ± 0.24,-0.0683 ± 0.14,0.0203 ± 0.1,-0.0678 ± 0.087,-0.0758 ± 0.076
c1cc(-c2cnn3cc(-c4ccc(N5CCNCC5)cc4)cnc23)c2cccnc2c1,0.238 ± 0.18,0.129 ± 0.37,-0.475 ± 0.22,-1.26 ± 0.6,0.133 ± 0.16,-0.0371 ± 0.031,-0.342 ± 0.1,-0.491 ± 0.031,0.0946 ± 0.11,0.0512 ± 0.07,-0.217 ± 0.093,-0.273 ± 0.11
O=C(Nc1ccccc1)c1cc([N+](=O)[O-])ccc1Cl,0.115 ± 0.22,0.0412 ± 0.19,0.212 ± 0.11,0.133 ± 0.18,-0.00908 ± 0.042,0.0449 ± 0.0058,0.0529 ± 0.053,0.004 ± 0.022,0.035 ± 0.069,0.0979 ± 0.077,0.046 ± 0.078,0.0304 ± 0.039
C=CCNC1=C2C[C@@H](C)C[C@H](OC)[C@H](O)[C@@H](C)/C=C(\C)[C@H](OC(N)=O)[C@@H](OC)/C=C\C=C(/C)C(=O)NC(=CC1=O)C2=O [17-AAG (Tanespimycin)],-1.01 ± 0.85,-1.26 ± 0.96,-1.46 ± 0.62,-1.45 ± 0.83,-0.324 ± 0.15,-0.43 ± 0.045,-0.433 ± 0.024,-0.355 ± 0.088,-0.193 ± 0.11,-0.205 ± 0.12,-0.142 ± 0.076,-0.187 ± 0.1
Cc1ccc(C(=O)N(CCCN)[C@@H](c2nc3cc(Cl)ccc3c(=O)n2Cc2ccccc2)C(C)C)cc1,-0.323 ± 0.17,-0.518 ± 0.37,-0.511 ± 0.3,-0.713 ± 0.41,-0.303 ± 0.12,-0.329 ± 0.14,-0.325 ± 0.092,-0.343 ± 0.066,-0.222 ± 0.073,-0.191 ± 0.083,-0.196 ± 0.06,-0.201 ± 0.13
CC(=NNC(=S)N1CCC1)c1ccccn1,0.132 ± 0.097,-0.185 ± 0.38,-0.447 ± 0.72,-1.91 ± 0.14,0.11 ± 0.062,0.0744 ± 0.69,-0.283 ± 0.28,-0.373 ± 0.024,0.113 ± 0.087,-0.0896 ± 0.23,-0.152 ± 0.15,-0.229 ± 0.097
C#CCN[C@@H]1CCc2ccccc21 [Rasagiline Mesylate],0.22 ± 0.22,0.166 ± 0.26,0.0778 ± 0.0048,0.0938 ± 0.29,0.102 ± 0.27,0.103 ± 0.0024,0.199 ± 0.24,0.129 ± 0.13,0.06 ± 0.17,0.159 ± 0.19,0.035 ± 0.097,0.00408 ± 0.093
O=C(NC(Cc1cc(=O)[nH]c2ccccc12)C(=O)O)c1ccc(Cl)cc1 (stereo unspecified) [Rebamipide],-0.19 ± 0.29,-0.598 ± 0.37,-0.249 ± 0.13,-0.343 ± 0.26,-0.0667 ± 0.063,-0.0661 ± 0.27,0.0951 ± 0.54,-0.026 ± 0.15,-0.0521 ± 0.054,-0.0352 ± 0.12,-0.0847 ± 0.078,-0.0587 ± 0.074
O=C(/C=C/c1cccc(S(=O)(=O)Nc2ccccc2)c1)NO [Belinostat (PXD101)],-0.227 ± 0.14,-0.0555 ± 0.25,-0.782 ± 0.042,-1.12 ± 0.12,-0.057 ± 0.15,0.131 ± 0.044,-0.333 ± 0.097,-0.415 ± 0.056,0.00772 ± 0.067,0.129 ± 0.25,-0.173 ± 0.12,-0.196 ± 0.073
Nc1ncnc2c1c(-c1cccc(OCc3ccccc3)c1)cn2C1CC(CN2CCCC2)C1 (stereo unspecified),0.679 ± 0.32,0.663 ± 0.24,0.257 ± 0.081,-0.465 ± 0.47,0.238 ± 0.3,0.317 ± 0.48,-0.238 ± 0.089,-0.297 ± 0.096,0.142 ± 0.093,0.172 ± 0.27,-0.0945 ± 0.068,-0.135 ± 0.088
COC(=O)C1=C(C#N)NC(C)=C(C(=O)OC(C)C)C1c1cccc([N+](=O)[O-])c1 (stereo unspecified) [Nilvadipine],0.206 ± 0.18,0.135 ± 0.29,0.212 ± 0.26,0.192 ± 0.32,0.0903 ± 0.24,-0.0432 ± 0.0088,-0.074 ± 0.041,-0.0988 ± 0.078,0.0984 ± 0.11,0.00387 ± 0.1,0.0575 ± 0.2,0.00943 ± 0.072
O=C(/C=C/n1cnc(-c2cc(C(F)(F)F)cc(C(F)(F)F)c2)n1)N1CC(F)(F)C1,0.167 ± 0.17,-0.0436 ± 0.11,-0.413 ± 0.37,-0.703 ± 0.069,0.172 ± 0.068,0.182 ± 0.14,-0.415 ± 0.037,-0.462 ± 0.015,0.0565 ± 0.052,0.0857 ± 0.052,-0.224 ± 0.099,-0.256 ± 0.13
CC(C)C[C@H](NC(=O)[C@@H](NC(=O)c1cccc(-c2ccccc2)n1)[C@@H](C)O)B(O)O,-0.953 ± 0.18,-1.64 ± 0.61,-0.99 ± 1.1,-1.15 ± 0.81,-0.229 ± 0.047,-0.234 ± 0.079,-0.26 ± 0.1,-0.194 ± 0.093,-0.108 ± 0.067,-0.0762 ± 0.08,-0.0627 ± 0.047,-0.0354 ± 0.046
Cc1ccc(C(=O)N(CCCN)[C@@H](c2oc3cc(Cl)ccc3c(=O)c2Cc2ccccc2)C(C)C)cc1,-0.543 ± 0.29,-0.582 ± 0.43,-0.241 ± 0.35,-0.418 ± 0.24,-0.412 ± 0.017,-0.231 ± 0.31,-0.221 ± 0.26,-0.146 ± 0.36,-0.249 ± 0.081,-0.0319 ± 0.38,-0.169 ± 0.15,0.00792 ± 0.41
C=CCc1cccc(/C=N/NC(=O)CN2CCN(Cc3ccccc3)CC2)c1O,0.0953 ± 0.15,0.113 ± 0.066,-0.241 ± 0.069,0.00165 ± 0.19,0.123 ± 0.16,0.0223 ± 0.039,-0.0235 ± 0.14,0.0652 ± 0.048,0.157 ± 0.092,0.0525 ± 0.048,0.126 ± 0.12,0.0685 ± 0.021
O=C(Cc1ccc(-c2ccc(OCCN3CCOCC3)cc2)cn1)NCc1ccccc1,-0.752 ± 0.12,-1.25 ± 0.28,-1.98 ± 0.52,-1.41 ± 0.87,-0.45 ± 0.023,-0.467 ± 0.031,-0.505 ± 0.057,-0.479 ± 0.075,-0.283 ± 0.07,-0.292 ± 0.1,-0.251 ± 0.09,-0.286 ± 0.081
Cc1ccc(NCCCc2ccccc2)c(N)c1,0.193 ± 0.26,0.23 ± 0.27,0.0738 ± 0.25,0.0461 ± 0.16,0.164 ± 0.022,0.0558 ± 0.044,-0.0395 ± 0.035,-0.0739 ± 0.08,0.0545 ± 0.089,0.079 ± 0.12,-0.00191 ± 0.098,-0.0458 ± 0.12
